The source of these data is publication PMC5700166.

Only a part is listed here, and it is no random draw. The list includes weakly bound sequences.

Holding throughout (assay): protein-binding microarray (PBM)
Holding throughout (conditions): PBM: ~300 nM protein, 6 mM HEPES pH 7.8, 80 mM KCl, 0.5 mM EDTA, 0.5 mM EGTA, 6% glycerol, 35 ng/ul poly-dIdC, 1% milk, 1 h, room temperature; Ap Aiptasia and Nv Nematostella (sea anemones) / Co Capsaspora / Aq Amphimedon (sponge) / Dm Drosophila / Hu human; RHD is the Rel homology domain; high values mean tight binding; most listed sequences are background and not binding sites; double strand, one strand shown

One assay concerns the target T1, GST-Ap-NF-kB RHD (UniProt A0A913YAJ5).
T1 sequence: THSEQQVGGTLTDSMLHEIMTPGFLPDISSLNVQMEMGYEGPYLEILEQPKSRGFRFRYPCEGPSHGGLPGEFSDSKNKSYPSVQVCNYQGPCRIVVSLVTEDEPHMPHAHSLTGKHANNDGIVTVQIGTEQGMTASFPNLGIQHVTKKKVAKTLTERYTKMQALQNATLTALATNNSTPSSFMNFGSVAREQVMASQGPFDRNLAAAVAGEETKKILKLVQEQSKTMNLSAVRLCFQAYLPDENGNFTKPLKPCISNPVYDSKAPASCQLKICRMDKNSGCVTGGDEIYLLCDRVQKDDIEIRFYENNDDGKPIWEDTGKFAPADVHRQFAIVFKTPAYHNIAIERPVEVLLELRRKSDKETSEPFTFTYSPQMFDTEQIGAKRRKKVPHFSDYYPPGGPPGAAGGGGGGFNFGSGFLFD

Assay [1] addresses T2, GST-Nv-NF-kB (Cys allele) (UniProt E5G601).
T2 sequence: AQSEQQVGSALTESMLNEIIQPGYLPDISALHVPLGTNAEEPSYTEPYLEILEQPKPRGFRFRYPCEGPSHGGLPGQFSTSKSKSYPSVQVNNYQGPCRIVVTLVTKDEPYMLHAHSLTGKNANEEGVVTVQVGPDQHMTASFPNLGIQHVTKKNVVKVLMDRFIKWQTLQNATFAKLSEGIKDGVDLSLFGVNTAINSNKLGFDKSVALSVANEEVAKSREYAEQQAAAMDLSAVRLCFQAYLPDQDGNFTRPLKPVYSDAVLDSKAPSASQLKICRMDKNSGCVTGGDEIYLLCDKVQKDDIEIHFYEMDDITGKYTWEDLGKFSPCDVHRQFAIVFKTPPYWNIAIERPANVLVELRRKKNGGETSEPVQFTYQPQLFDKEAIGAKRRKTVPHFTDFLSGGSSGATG

The target of a further assay is T3, GST-Co-NF-kB (UniProt F1ARL5).
T3 sequence: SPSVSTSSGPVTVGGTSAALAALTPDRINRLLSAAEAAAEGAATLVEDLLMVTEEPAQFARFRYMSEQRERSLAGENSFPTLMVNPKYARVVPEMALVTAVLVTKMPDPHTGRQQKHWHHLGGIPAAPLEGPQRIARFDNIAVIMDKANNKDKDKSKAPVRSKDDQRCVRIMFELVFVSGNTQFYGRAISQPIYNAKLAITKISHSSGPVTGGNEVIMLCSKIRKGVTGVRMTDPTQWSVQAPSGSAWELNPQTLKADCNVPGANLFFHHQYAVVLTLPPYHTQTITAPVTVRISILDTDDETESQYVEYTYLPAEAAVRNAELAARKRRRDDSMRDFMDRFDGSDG

For a further assay, the target named is T4, GST-Dm-Relish (UniProt Q94527).
T4 sequence: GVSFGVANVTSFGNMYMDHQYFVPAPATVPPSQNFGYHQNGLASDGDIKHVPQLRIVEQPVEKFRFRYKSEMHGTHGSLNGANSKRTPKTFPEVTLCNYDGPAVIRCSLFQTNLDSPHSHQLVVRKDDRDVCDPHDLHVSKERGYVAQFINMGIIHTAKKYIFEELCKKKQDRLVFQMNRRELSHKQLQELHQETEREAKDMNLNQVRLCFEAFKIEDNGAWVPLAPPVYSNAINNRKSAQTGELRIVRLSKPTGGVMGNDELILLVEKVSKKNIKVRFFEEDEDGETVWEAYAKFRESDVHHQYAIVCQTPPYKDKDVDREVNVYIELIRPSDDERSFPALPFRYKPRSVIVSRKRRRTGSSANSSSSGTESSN

In another assay the target is T5, GST-Aq-NF-kB (UniProt A9Y5G7).
T5 sequence: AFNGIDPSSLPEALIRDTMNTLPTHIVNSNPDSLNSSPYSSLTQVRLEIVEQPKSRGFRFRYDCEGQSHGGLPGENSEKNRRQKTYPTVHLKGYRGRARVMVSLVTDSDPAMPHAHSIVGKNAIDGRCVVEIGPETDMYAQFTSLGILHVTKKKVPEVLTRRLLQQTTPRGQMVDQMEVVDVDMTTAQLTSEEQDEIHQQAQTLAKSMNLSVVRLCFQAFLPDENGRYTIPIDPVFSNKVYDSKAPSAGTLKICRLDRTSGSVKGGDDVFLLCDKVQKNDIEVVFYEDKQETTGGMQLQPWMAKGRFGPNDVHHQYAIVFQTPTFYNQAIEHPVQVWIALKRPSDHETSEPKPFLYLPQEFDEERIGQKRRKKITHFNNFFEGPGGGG

Take “CCGATTAACATCAATAGAACGCTTGATGTTAATCGGGTCTTGATTCGCTTGACGCTGCTG”: the binding signal was -0.708 z-score in the assay with GST-Ap-NF-kB RHD; -0.594 z-score in assay [1]; 0.386 z-score in the assay with GST-Co-NF-kB; -1.18 z-score with GST-Dm-Relish; -0.766 z-score with GST-Aq-NF-kB.
As to “CCGATTAACATCAGGAATATTCCTGATGTTAATCGGGTCTTGATTCGCTTGACGCTGCTG”, the binding signal in the assay with GST-Ap-NF-kB RHD is 0.426 z-score; in assay [1], 1.22 z-score; with GST-Co-NF-kB it was -0.478 z-score; with GST-Dm-Relish it was 0.951 z-score; with GST-Aq-NF-kB, 1.34 z-score.
The matching figures for “CCGATTAACATCAAGCCAAGGCCTGATGTTAATCGGGTCTTGATTCGCTTGACGCTGCTG”: -1.34 z-score, -0.482 z-score, -2.19 z-score, -1.1 z-score and -0.844 z-score.
The matching figures for “CCGATTAACATCACAGTCATTGTTGATGTTAATCGGGTCTTGATTCGCTTGACGCTGCTG”: -0.324 z-score, -0.0223 z-score, 0.0536 z-score, 0.0138 z-score and -0.589 z-score.
The matching figures for “CCGATTAACATCATTTTTTTAAGTGATGTTAATCGGGTCTTGATTCGCTTGACGCTGCTG”: -0.799 z-score, 0.0409 z-score, -0.182 z-score, 0.366 z-score and -0.411 z-score.
Turning to “CCGATTAACATCACTGACGCAGTTGATGTTAATCGGGTCTTGATTCGCTTGACGCTGCTG”, the binding signal with GST-Ap-NF-kB RHD was -0.937 z-score; in assay [1], -0.531 z-score; with GST-Co-NF-kB it was -1.29 z-score; with GST-Dm-Relish, -0.591 z-score; with GST-Aq-NF-kB, -0.588 z-score.
For “CCGATTAACATCAGGCAGTTCCATGATGTTAATCGGGTCTTGATTCGCTTGACGCTGCTG” the same measures were -0.515 z-score, -0.0128 z-score, -0.00877 z-score, -0.576 z-score and -0.327 z-score.
As for “CCGATTAACATCAACGAATTTCCTGATGTTAATCGGGTCTTGATTCGCTTGACGCTGCTG”, the binding signal in the assay with GST-Ap-NF-kB RHD is 0.0746 z-score; in assay [1] it was 0.328 z-score; with GST-Co-NF-kB it was 0.444 z-score; with GST-Dm-Relish, -0.00138 z-score; with GST-Aq-NF-kB it was 0.254 z-score.
Consider “CCGATTAACATCACTGACAGTCATGATGTTAATCGGGTCTTGATTCGCTTGACGCTGCTG”, for which the binding signal is -0.132 z-score with GST-Ap-NF-kB RHD; 0.245 z-score in assay [1]; -0.792 z-score with GST-Co-NF-kB; -0.513 z-score with GST-Dm-Relish; -0.435 z-score with GST-Aq-NF-kB.
The matching figures for “CCGATTAACATCAGATTCTCGTGTGATGTTAATCGGGTCTTGATTCGCTTGACGCTGCTG”: -0.39 z-score, -0.561 z-score, 0.299 z-score, 0.29 z-score and -0.348 z-score.
The matching figures for “CCGATTAACATCAAAACGAAATGTGATGTTAATCGGGTCTTGATTCGCTTGACGCTGCTG”: -0.588 z-score, -0.11 z-score, 0.346 z-score, 0.405 z-score and -0.329 z-score.
The matching figures for “CCGATTAACATCATCATGTTAAATGATGTTAATCGGGTCTTGATTCGCTTGACGCTGCTG”: -1.23 z-score, -0.99 z-score, -0.38 z-score, -0.202 z-score and -0.571 z-score.
On to “CCGATTAACATCACAATGTGGCGTGATGTTAATCGGGTCTTGATTCGCTTGACGCTGCTG”, for which the binding signal with GST-Ap-NF-kB RHD is -0.205 z-score; in assay [1] it was -0.11 z-score; in the assay with GST-Co-NF-kB it was 0.369 z-score; with GST-Dm-Relish, 0.585 z-score; with GST-Aq-NF-kB, -0.129 z-score.
The matching figures for “CCGATTAACATCACTTCTGCTGCTGATGTTAATCGGGTCTTGATTCGCTTGACGCTGCTG”: 0.3 z-score, -0.438 z-score, 0.435 z-score, -0.481 z-score and -0.31 z-score.
